Results taken from PubChem BioAssay AID1508642 (National Center for Advancing Translational Sciences (NCATS), 2021).
The whole screen tested about 43,000 compounds, of which about 200 (0.47%) were called active. Not shown: some 12% with an inconclusive outcome. Calls come from the whole dose curve; as a rule, active = well fitted cell-killing curve with a large enough effect; inconclusive = small, poorly fitted or top-dose-only effect, or effect the other way; inactive = flat fitted curve, though single readings scatter. This is one part of the list.

Assay: Cell viability qHTS assay in S16 Pmp22-F2sN cells; note: nearly all actives have a fitted effect of over 65% in size
Settings: S16 Pmp22-F2sN Schwann cells (luciferase reporters placed in the Pmp22 gene) viability, CellTiter-Glo, 24 h; series mostly up to 57.5 µM; activity change, negative = cytotoxicity: at the top concentration
Method in brief: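 Seed 500-1,000 S16 Pmp22-F2sN cells per well in phenol-red-free DMEM with 10% heat-inactivated FBS; pin-add 23 nL compound; incubate 24 h at 37C; add CellTiter-Glo, wait 15 min protected from light; read luminescence.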
% is set by controls: 0 for no effect and ±100 for the full control effect.

Structure (SMILES) | activity change, negative = cytotoxicity
Cc1cccc(N(C)C(=O)c2cc(S(=O)(=O)N3CCCCC3)c[nH]2)c1 | inactive: -5.3%
COc1ccc(NC(=O)c2cc(S(=O)(=O)N3CCCCC3)cn2C)cc1Cl | inactive: 5.12%
CCc1ccc(CNC(=O)c2nn(-c3ccc(OC)c(Cl)c3)c(=O)c3c2c2ccccc2n3C)cc1 | inactive: 7.71%
COc1ccc(-c2c3c(nc4sc(C(=O)Nc5ccccc5F)c(N)c24)CC(C)(C)CC3=O)cc1 | inactive: 16.2%
CCN(Cc1ccccc1)C(=O)CN1C(=O)CSc2ccc(S(=O)(=O)N(CC)CC)cc21 | inactive: -2.68%
COC(=O)CSc1nc2sc3c(c2c(=O)n1Cc1ccccc1)CCC(C(C)(C)C)C3 (stereo not given) | inactive: -0.141%
COc1ccccc1CCNC(=O)C(=O)NCC(c1cccs1)S(=O)(=O)c1ccc(F)cc1 (stereo not given) | inactive: 17.6%
C=CCc1ccccc1OCCn1c(C2CC(=O)N(Cc3ccc(F)cc3)C2)nc2ccccc21 (stereo not given) | inactive: 10.5%
Cc1ccc(C)c(NC(=O)N2CCc3cc(S(=O)(=O)N4CCC(C)CC4)ccc32)c1 | inactive: 0.804%
Cc1ccc2nc(-c3cccc(Cl)c3)c(Nc3ccc4c(c3)OCO4)n2c1 | inactive: 0.844%
COc1ccccc1NC(=O)Cn1cc(C(=O)c2ccncc2)c(=O)c2cc(C)ccc21 | inactive: -4.57%
COc1ccc(Cl)cc1NC(=O)C1CCN(S(=O)(=O)c2ccc3c(c2)CCCN3C(=O)C2CCC2)CC1 | inactive: 18.1%
Cc1cc(=O)[nH]c2nnc(SCC(=O)Nc3ccc(F)cc3F)n12 | inactive: 0.321%
Cc1ccc(NC(=O)N2CCN3CCCCC3C2)cc1F (stereo not given) | inactive: -2.2%
Cc1ccsc1CN(C(=O)c1ccc(Br)cc1)C1CCS(=O)(=O)C1 (stereo not given) | inactive: -3.38%
O=C(Nc1cccc(-c2nc3ccccc3[nH]2)c1)c1ccccc1F | inactive: -13.6%
CCc1ccc(-c2nc(SCC(=O)NCC3CCCO3)c(-c3ccc(F)cc3)[nH]2)cc1 (stereo not given) | inactive: 2.71%
CNC(=O)c1ccc(CSc2nc3cccnc3n2Cc2cccc(F)c2)cc1 | inactive: -13.1%
COc1ccc(CCNc2nc(SCc3ccc(F)cc3)nc3ccccc23)cc1OC | inactive: -7.16%
CC1=C(c2ccc(C)c(C)c2)S(=O)(=O)N=C1N1CCC(C(=O)Nc2ccc(Cl)cc2)CC1 | inactive: 8.43%
CCc1nn(CC(=O)N2CCN(c3cc(C)ccc3C)CC2)c(=O)c2cc3occc3n12 | inactive: 2.94%
Fc1ccccc1N1CCN(c2ncc3c(n2)CCN(Cc2ccc(Br)s2)C3)CC1 | inactive: 3.3%
COc1cc(NS(=O)(=O)c2cc3c(cc2C)n(C)c(=O)c(=O)n3C)cc(OC)c1 | inactive: 4.28%
O=C(Nc1nnc(S(=O)(=O)N2CCOCC2)s1)c1cccc(Br)c1 | inactive: -3.39%

Structure (SMILES) | activity change, negative = cytotoxicity
COc1cccc(C(=O)Nc2ccc(C(=O)OCc3cc(=O)n4cc(C)sc4n3)cc2)c1 | inactive: -28.2%
Cc1ccccc1C(=O)NC1(C(F)(F)F)C(=O)Nc2c1c(=O)[nH]c(=O)n2CCc1ccccc1 (stereo not given) | inactive: -2.15%
COc1ccc(-c2nc3c4ccccc4n(CC(=O)Nc4ccc(C(C)=O)cc4)c(=O)n3n2)cc1 | inactive: 1.61%
Cc1nc2ccc(S(=O)(=O)NCC(=O)Nc3ccc(C)c(Cl)c3)cc2s1 | inactive: 5.91%
Cc1cc(C)cc(NC(=O)CSc2nc3c(cnn3-c3ccc(F)cc3)c(=O)[nH]2)c1 | inactive: 11%
COc1cc(NC(=O)NCCn2nnc3cc(S(=O)(=O)N(C)C)ccc32)cc(OC)c1OC | inactive: 10%
COc1cc(NC(=O)c2cc3cc4ccc(OC)c(Cl)c4nc3s2)cc(OC)c1 | inactive: 11.4%
Cc1ccc(-c2cc3ncc4c(n3n2)-c2ccccc2OC4)cc1 | inactive: -4.78%
Cc1ccc(OCCSc2nc3ccccc3n2CC(=O)NC(C)C)cc1 | inactive: 16.6%
O=C1CSC2(C(=O)N(Cc3c(F)cccc3Cl)c3ccccc32)N1c1ccc(F)c(F)c1 (stereo not given) | inactive: -1.8%
Cc1ccc(-c2nnn3c2nc(N2CCC(C)CC2)c2ccccc23)cc1 | inactive: 7.53%
Cc1cc(SCC(=O)Nc2ccc(C(F)(F)F)cc2)nc(=O)[nH]1 | inactive: -16.9%
Cc1ccc(C)c(N2CCN(C(=O)c3cccn4c(=O)c5ccccc5nc34)CC2)c1 | inactive: 4.35%
CCCCOC(=O)c1ccc(NC(=O)c2cc(=O)c3ccccc3o2)cc1 | inactive: 0.326%
O=C(O)CCCn1cc(NC(=O)COc2ccccc2F)cn1 | inactive: -1.81%
CCc1ccc(C(=O)c2cn(CC(=O)Nc3ccc(OC)cc3)c3cc4c(cc3c2=O)OCCO4)cc1 | inactive: 24.5%
O=C(Nc1ccc(OC(F)(F)F)cc1)C(NS(=O)(=O)c1cccc2nsnc12)c1ccccc1 (stereo not given) | inactive: -10.1%
COc1ccc(CCNC(=O)c2ccc(CSCc3ccc(C)cc3)o2)cc1OC | inactive: -5.79%
Cc1cccc(CSc2ccc3nnc(CCNS(=O)(=O)c4ccccc4)n3n2)c1 | inactive: -22.1%
Fc1ccc(Nc2c(-c3c[nH]c4ccccc34)nc3ccccn23)cc1 | inactive: 1.89%
Cc1ccc(C(=O)Nc2nnc(S(=O)(=O)N3CCCc4ccccc43)s2)cc1 | inactive: 4.68%
CCc1ccc2c(c1)c(=O)c(C(=O)c1ccccc1)cn2CC(=O)Nc1ccc(C)c(Cl)c1 | inactive: 1.64%
Cc1oc2ncn(CC(C)C)c(=O)c2c1C(=O)NCCCN1CCCCC1C (stereo not given) | inactive: 20.3%
CCN1CCN(C(=O)c2ccc3c(c2)N(Cc2ccc(Cl)cc2)C(=O)c2ccccc2S3=O)CC1 (stereo not given) | inactive: 19.5%

Structure (SMILES) | activity change, negative = cytotoxicity
CCOc1ccc(NC(=O)c2oc3ccccc3c2NC(=O)Cc2cccs2)cc1 | inactive: 6.44%
CCc1ccc(Cn2c(CNS(=O)(=O)c3ccc4c(c3)CCCC4)nc3cccnc32)cc1 | inactive: -5.08%
Cc1ccc(NC(=O)CSc2nc3nccnc3c(=O)n2CCc2c[nH]c3ccccc23)c(C)c1 | inactive: 2.46%
COc1ccc(-c2nnc(SCC(=O)NCCc3ccccc3)nc2-c2ccc(OC)cc2)cc1 | inactive: 2.61%
CCc1ccccc1NC(=O)c1ncoc1-c1ccco1 | inactive: 1.31%
Cc1ccccc1CN1c2ccccc2-c2nc(SCC(=O)Nc3cc(F)ccc3F)ncc2S1(=O)=O | inactive: 10.5%
Cc1ccc(-n2ncc(C(=O)NCCCN3CCN(C)CC3)c2C2CCN(C(=O)OC(C)(C)C)CC2)cc1 | inactive: -0.228%
Cc1cc(C)c(NC(=O)CN2C(=O)CCn3nc(-c4cccn4C)cc32)c(C)c1 | inactive: 0.286%
Cc1ccc(Cl)cc1NC(=O)c1cc(-c2ccc3c(c2)OCCO3)on1 | inactive: -0.151%
Cc1cccc(NC(=O)CN(C)S(=O)(=O)c2cnc[nH]2)c1C | inactive: 0.943%
Cc1cc(C)c(NC(=O)CSc2cn(CC(=O)N3CCOCC3)c3ccccc23)c(C)c1 | inactive: 10.7%
CCCCNc1cc(N2CCN(C3CCCCC3)CC2)c2noc3c2c1C(=O)c1ccccc1-3 | inactive: 5.1%
CCCCC(=O)N1CCN(c2nc3c(C)c(C)ccc3s2)CC1 | inactive: 2.71%
COc1cccc(-n2c(SCC(=O)Nc3ccc(F)cc3F)nc3c([nH]c4ccccc43)c2=O)c1 | inactive: 2.68%
c1csc(-c2nc3ccccn3c2Nc2ccc3c(c2)OCCO3)c1 | inactive: -0.918%
COc1ccc(S(=O)(=O)NCCS(=O)(=O)N2CCN(c3ccccc3F)CC2)cc1 | inactive: -19%
COc1ccc(CCNC(=O)c2ccc(Cn3c(=O)c4ccccc4n(Cc4ccccc4Cl)c3=O)cc2)cc1OC | inactive: 11.4%
CCOc1cc(-c2ccc(OC(=O)c3ccc(Cl)cc3)c(OC)c2)cc(=O)c2c(C)oc(C)c12 | inactive: 1.38%
Cc1nnc(N2C(=O)c3oc4ccccc4c(=O)c3C2c2ccc(F)cc2)s1 (stereo not given) | inactive: 15.9%
Cc1c(C(=O)NCc2ccc(F)cc2)sc2nc(-c3ccccc3)cn12 | inactive: -2.17%
Oc1c(C(c2ccc(Cl)cc2)N2CCCC2)sc2nc(-c3ccco3)nn12 (stereo not given) | inactive: 5.06%
CCOc1ccccc1C(=O)NCC(c1ccc(N(C)C)cc1)N1CCc2ccccc21 (stereo not given) | inactive: 10.6%
COc1ccccc1CNC(=O)c1cccc(NC(=O)N2CCSc3ncccc32)c1 | inactive: -0.469%
COc1cc(-c2nc3cccc(C)n3c2Nc2ccc3c(c2)OCCO3)ccc1O | inactive: -0.17%

Structure (SMILES) | activity change, negative = cytotoxicity
CCCCOC(=O)c1ccc(NC(=O)CSc2nc3c(c(=O)[nH]2)CCC3)cc1 | inactive: -5.8%
CC(=O)c1ccc(N2CCN(c3ncnc4onc(-c5ccc(Cl)cc5)c34)CC2)cc1 | inactive: -5.79%
CCCCCn1c(=O)[nH]c2cc(C(=O)N3CCN(c4ccccc4F)CC3)ccc2c1=O | inactive: 1.64%
CCOC(=O)c1cccc(Nc2nc(C(=O)OCC)nc3ccccc23)c1 | inactive: -3.05%
Cc1ccc(NC(=O)c2cc(-c3cccs3)on2)cc1C | inactive: -0.992%
CCN1CCN(CCCNC(=O)c2cnn(-c3ccc(C)cc3)c2C2CCN(C(=O)OC(C)(C)C)CC2)CC1 | inactive: 5%
CCOC(=O)c1[nH]c2ccccc2c1NC(=O)c1ccc(OCC)cc1 | inactive: 3.64%
Cc1ccc(-n2ncc3c(NCCCn4ccnc4)ncnc32)cc1 | inactive: 1.89%
O=C(NC1CC(=O)N(c2ccccc2)C1)c1cc2ccccc2o1 (stereo not given) | inactive: -2.28%
O=C(Nc1nnc(S(=O)(=O)N2CCCC2)s1)c1ccc(F)cc1 | inactive: 6.24%
Cc1oc(-c2ccccc2)nc1CNS(=O)(=O)c1ccc(Cl)cc1 | inactive: 2.28%
CCCCOc1ccccc1NC(=O)Cn1c(-c2cncs2)nc2ccccc21 | inactive: 8.99%
Cc1cccc(-c2nc(N3CCN(c4ccc(F)cc4)CC3)c3ccccc3n2)c1 | inactive: 2.27%
CCOC(=O)c1cccc(NC(=O)c2cc3c(=O)n(Cc4cccnc4)ccc3nc2C)c1 | inactive: -1.24%
CN1CCN(Cc2c(O)ccc3cc(-c4ccccc4)c(=O)oc23)CC1 | inactive: 0.85%
CCOc1ccc(-c2cc(C(=O)NCc3ccc(OC)cc3)c3c(-c4ccc(F)cc4)[nH]nc3n2)cc1 | inactive: 3.46%
COc1ccc(C(=O)NCc2ccc3c(c2)CCN3C(=O)c2cccc(C)c2)cc1OC | inactive: -8.09%
O=C(CCn1cccn1)Nc1cccc(C(F)(F)F)c1 | inactive: -1.05%
Cc1ccc(-n2c(=O)c3c(cnn3C)n(CC(=O)Nc3cc(C)ccc3C)c2=O)cc1 | inactive: 16.1%
O=C(CCSCc1cnn(-c2ccccc2)c1-n1cccc1)NCc1ccc(Cl)cc1 | inactive: -14.1%
Cc1ccc(NC(=O)Cn2cc(C(=O)c3cccs3)c3ccccc32)cc1C | inactive: -6.72%
Cc1ccc(C(=O)c2cn(Cc3cccc(F)c3)c3nc(C)ccc3c2=O)cc1 | inactive: 23.2%
Cc1cccc(NS(=O)(=O)c2ccc(Cl)c(C(=O)Nc3ccccc3C)c2)c1 | inactive: 16.3%
